The list shows a part of the results.
Assays:
Experiment in all cases: glycan array binding signal (z-score within array); higher = stronger binding
Conditions in all cases: glycan notation: IUPAC condensed, linker removed
[1] = molecular target: Fuc(a1-2)Gal(b1-4)GlcNAc(b1-3)Gal(b1-4)GlcNAc(b1-3)Gal(b1-4)GlcNAc
Method in brief: (§1)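 Glycan array binding is given as a within-array Z-score, which can be read as non-binding when negative. The arrays, 3228 of them, came from the Consortium for Functional Glycomics database and were retained only where the protein sequence was available. Z-scores were averaged across arrays of the same protein sequence at different concentrations or buffers and across linkers.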

[2] = molecular target: Fuc(a1-2)Gal(b1-4)GlcNAc(b1-3)GalNAc
Method in brief: as §1

[3] = molecular target: Fuc(a1-2)Gal(b1-4)GlcNAc(b1-3)[Fuc(a1-2)Gal(b1-4)GlcNAc(b1-6)]GalNAc
Method in brief: as §1

[4] = molecular target: Fuc(a1-2)Gal(b1-4)GlcNAc(b1-3)[Fuc(a1-3)[Gal(b1-4)]GlcNAc(b1-6)]Gal(b1-4)Glc
Method in brief: as §1

[5] = molecular target: Fuc(a1-2)Gal(b1-4)GlcNAc(b1-6)GalNAc
Method in brief: as §1

[6] = molecular target: Fuc(a1-2)Gal(b1-4)GlcNAc6S
Method in brief: as §1

[7] = molecular target: Fuc(a1-2)Gal(b1-4)[Fuc(a1-3)]GlcNAc
Method in brief: as §1

[8] = molecular target: Fuc(a1-2)Gal(b1-4)[Fuc(a1-3)]GlcNAc(b1-2)Man(a1-3)[Fuc(a1-2)Gal(b1-4)[Fuc(a1-3)]GlcNAc(b1-2)Man(a1-6)]Man(b1-4)GlcNAc(b1-4)[Fuc(a1-6)]GlcNAc
Method in brief: as §1

[9] = molecular target: Fuc(a1-2)Gal(b1-4)[Fuc(a1-3)]GlcNAc(b1-2)[Fuc(a1-2)Gal(b1-4)[Fuc(a1-3)]GlcNAc(b1-4)]Man(a1-3)[Fuc(a1-2)Gal(b1-4)[Fuc(a1-3)]GlcNAc(b1-2)Man(a1-6)]Man(b1-4)GlcNAc(b1-4)GlcNAc
Method in brief: as §1

[10] = molecular target: Fuc(a1-2)Gal(b1-4)[Fuc(a1-3)]GlcNAc(b1-3)Gal(b1-4)[Fuc(a1-3)]GlcNAc
Method in brief: as §1

[11] = molecular target: Fuc(a1-2)Gal(b1-4)[Fuc(a1-3)]GlcNAc(b1-3)Gal(b1-4)[Fuc(a1-3)]GlcNAc(b1-3)Gal(b1-4)[Fuc(a1-3)]GlcNAc
Method in brief: as §1

[12] = molecular target: Fuc(a1-2)Gal(b1-4)[Fuc(a1-3)]GlcNAc(b1-3)GalNAc
Method in brief: as §1

[13] = molecular target: Fuc(a1-2)Gal(b1-4)[Fuc(a1-3)]GlcNAc(b1-3)[Neu5Ac(a2-6)Gal(b1-4)GlcNAc(b1-6)]Gal(b1-4)Glc
Method in brief: as §1

[14] = molecular target: Fuc(a1-2)Gal3S(b1-4)GlcNAc
Method in brief: as §1

[15] = molecular target: Fuc(a1-2)Gal6S(b1-3)GlcNAc
Method in brief: as §1

[16] = molecular target: Fuc(a1-2)Gal6S(b1-3)GlcNAc6S
Method in brief: as §1

[17] = molecular target: Fuc(a1-2)Gal6S(b1-4)Glc
Method in brief: as §1

[18] = molecular target: Fuc(a1-2)Gal6S(b1-4)Glc6S
Method in brief: as §1

[19] = molecular target: Fuc(a1-2)[Gal(a1-3)]Gal
Method in brief: as §1

[20] = molecular target: Fuc(a1-2)[Gal(a1-3)]Gal(b1-3)GalNAc
Method in brief: as §1

[21] = molecular target: Fuc(a1-2)[Gal(a1-3)]Gal(b1-3)GalNAc(b1-3)Gal(a1-4)Gal(b1-4)Glc
Method in brief: as §1

[22] = molecular target: Fuc(a1-2)[Gal(a1-3)]Gal(b1-3)GlcNAc
Method in brief: as §1

[23] = molecular target: Fuc(a1-2)[Gal(a1-3)]Gal(b1-3)GlcNAc(b1-2)Man(a1-3)[Fuc(a1-2)[Gal(a1-3)]Gal(b1-3)GlcNAc(b1-2)Man(a1-6)]Man(b1-4)GlcNAc(b1-4)GlcNAc
Method in brief: as §1

[24] = molecular target: Fuc(a1-2)[Gal(a1-3)]Gal(b1-3)GlcNAc(b1-2)Man(a1-3)[Fuc(a1-2)[Gal(a1-3)]Gal(b1-3)GlcNAc(b1-2)Man(a1-6)]Man(b1-4)GlcNAc(b1-4)[Fuc(a1-6)]GlcNAc
Method in brief: as §1

[25] = molecular target: Fuc(a1-2)[Gal(a1-3)]Gal(b1-3)GlcNAc(b1-3)GalNAc
Method in brief: as §1

[26] = molecular target: Fuc(a1-2)[Gal(a1-3)]Gal(b1-3)GlcNAc(b1-6)GalNAc
Method in brief: as §1

[27] = molecular target: Fuc(a1-2)[Gal(a1-3)]Gal(b1-4)Glc
Method in brief: as §1

[28] = molecular target: Fuc(a1-2)[Gal(a1-3)]Gal(b1-4)GlcNAc
Method in brief: as §1

[29] = molecular target: Fuc(a1-2)[Gal(a1-3)]Gal(b1-4)GlcNAc(b1-2)Man
Method in brief: as §1

[30] = molecular target: Fuc(a1-2)[Gal(a1-3)]Gal(b1-4)GlcNAc(b1-2)Man(a1-3)[Fuc(a1-2)[Gal(a1-3)]Gal(b1-4)GlcNAc(b1-2)Man(a1-6)]Man(b1-4)GlcNAc(b1-4)GlcNAc
Method in brief: as §1

B1: Pa IMPa (Pseudomonas aeruginosa), Q9I5W4 (protein)
chain: MSLSTTAFPSLQGENMSRSPIPRHRALLAGFCLAGALSAQAATQEEILDAALVSGDSSQLTDSHLVALRLQQQVERIRQTRTQLLDGLYQNLSQAYDPGAASMWVLPANPDNTLPFLIGDKGRVLASLSLEAGGRGLAYGTNVLTQLSGTNAAHAPLLKRAVQWLVNGDPGAATAKDFKVSVVGVDKTAALNGLKSAGLQPADAACNALTDASCASTSKLLVLGNGASAASLSATVRARLQAGLPILFVHTNGWNQSSTGQQILAGLGLQEGPYGGNYWDKDRVPSSRTRTRSVELGGAYGQDPALVQQIVDGSWRTDYDWSKCTSYVGRTTCDDVPGLSDFSKRVDVLKGALDAYNQKAQNLFALPGTTSLRLWLLWADAVRQNIRYPMDKAADTARFQETFVADAIVGYVREAGAAQKELGSYAGQRQQSMPVSGSEETLTLTLPSAQGFTAIGRMAAPGKRLSIRIEDAGQASLAVGLNTQRIGSTRLWNTRQYDRPRFLKSPDIKLQANQSVALVSPYGGLLQLVYSGATPGQTVTVKVTGAASQPFLDIQPGEDSSQAIADFIQALDADKADWLEIRSGSVEVHAKVEKVRGSIDKDYGGDVQRFIRELNEVFIDDAYTLAGFAIPNQAKTPAIQQECAARGWDCDSETLHKLPGTQHINVDQYAQCGGGCSGNPYDQTWGLNPRGWGESHELGHNLQVNRLKVYGGRSGEISNQIFPLHKDWRVLREFGQNLDDTRVNYRNAYNLIVAGRAEADPLAGVYKRLWEDPGTYALNGERMAFYTQWVHYWADLKNDPLQGWDIWTLLYLHQRQVDKSDWDANKAALGYGTYAQRPGNSGDASSTDGNDNLLLGLSWLTQRDQRPTFALWGIRTSAAAQAQVAAYGFAEQPAFFYANNRTNEYSTVKLLDMSQGSPAWPFP
- glycan array binding signal (z-score) [1]: 0.501
- glycan array binding signal (z-score) [2]: 0.047
- glycan array binding signal (z-score) [3]: -0.151
- glycan array binding signal (z-score) [4]: 0.221
- glycan array binding signal (z-score) [5]: -0.289
- glycan array binding signal (z-score) [6]: -0.485
- glycan array binding signal (z-score) [7]: -0.138
- glycan array binding signal (z-score) [8]: -0.357
- glycan array binding signal (z-score) [9]: -0.153
- glycan array binding signal (z-score) [10]: 0.44
- glycan array binding signal (z-score) [11]: 0.068
- glycan array binding signal (z-score) [12]: -0.373
- glycan array binding signal (z-score) [13]: 0.266
- glycan array binding signal (z-score) [14]: 0.12
- glycan array binding signal (z-score) [15]: 0.048
- glycan array binding signal (z-score) [16]: 2.91
- glycan array binding signal (z-score) [17]: -0.334
- glycan array binding signal (z-score) [18]: -0.061
- glycan array binding signal (z-score) [19]: -0.102
- glycan array binding signal (z-score) [20]: 0.405
- glycan array binding signal (z-score) [21]: -0.276
- glycan array binding signal (z-score) [22]: 0.223
- glycan array binding signal (z-score) [23]: -0.054
- glycan array binding signal (z-score) [24]: -0.134
- glycan array binding signal (z-score) [25]: 0.134
- glycan array binding signal (z-score) [26]: -0.295
- glycan array binding signal (z-score) [27]: 0.454
- glycan array binding signal (z-score) [28]: -0.075
- glycan array binding signal (z-score) [29]: 0.066
- glycan array binding signal (z-score) [30]: -0.413

Reference: the supplement of paper PMC8728848
